# The whole screen tested about 310,000 compounds, of which about 14,000 (4.5%) showed an effect of 50% or more. The effect is printed as a negative number. The list shows a part of the results.
# Biological target: human ether-à-go-go-related gene (hERG) potassium channel (human, UniProt Q12809)
# Test: primary screen, population patch clamp on CHO cells stably expressing hERG
# 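Note: peak tail current of the secondary pulse compared with the same well before compound.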
# human ether-à-go-go-related gene (hERG) potassium channel, sequence (Q12809 whole entry, looked up): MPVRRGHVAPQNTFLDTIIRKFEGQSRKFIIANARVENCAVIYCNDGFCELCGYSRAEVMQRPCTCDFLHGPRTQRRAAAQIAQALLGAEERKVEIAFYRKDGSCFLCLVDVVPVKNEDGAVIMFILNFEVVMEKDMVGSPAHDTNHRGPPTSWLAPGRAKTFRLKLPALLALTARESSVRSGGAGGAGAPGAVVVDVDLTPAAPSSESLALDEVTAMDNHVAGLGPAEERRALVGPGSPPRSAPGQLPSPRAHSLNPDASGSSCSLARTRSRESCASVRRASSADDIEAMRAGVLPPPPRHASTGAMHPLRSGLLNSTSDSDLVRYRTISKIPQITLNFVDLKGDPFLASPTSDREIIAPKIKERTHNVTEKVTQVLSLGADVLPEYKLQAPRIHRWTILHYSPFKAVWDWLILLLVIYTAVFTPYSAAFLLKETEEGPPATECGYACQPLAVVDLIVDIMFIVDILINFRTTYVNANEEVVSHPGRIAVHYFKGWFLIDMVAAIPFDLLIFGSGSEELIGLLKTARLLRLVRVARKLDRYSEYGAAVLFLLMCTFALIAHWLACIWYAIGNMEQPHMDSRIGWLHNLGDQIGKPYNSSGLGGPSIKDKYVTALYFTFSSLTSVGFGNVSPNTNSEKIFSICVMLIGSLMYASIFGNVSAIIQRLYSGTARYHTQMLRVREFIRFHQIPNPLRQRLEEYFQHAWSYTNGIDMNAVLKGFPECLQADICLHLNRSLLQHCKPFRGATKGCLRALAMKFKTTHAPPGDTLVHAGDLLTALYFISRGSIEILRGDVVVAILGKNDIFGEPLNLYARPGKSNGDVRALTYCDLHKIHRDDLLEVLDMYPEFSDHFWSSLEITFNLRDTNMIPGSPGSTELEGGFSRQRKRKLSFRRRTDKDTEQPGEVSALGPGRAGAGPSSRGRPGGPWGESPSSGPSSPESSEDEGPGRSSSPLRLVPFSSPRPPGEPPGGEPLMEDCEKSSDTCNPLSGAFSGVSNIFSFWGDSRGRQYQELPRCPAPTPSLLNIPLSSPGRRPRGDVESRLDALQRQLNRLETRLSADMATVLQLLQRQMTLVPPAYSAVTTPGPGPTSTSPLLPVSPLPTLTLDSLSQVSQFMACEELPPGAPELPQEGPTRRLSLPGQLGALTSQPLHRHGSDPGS
row,Structure (SMILES),"hERG current change (%, negative = inhibition) at 10uM [%]"
1,CCc1ccc(CSc2nccn2-c2ccccc2)cc1,-2.11
2,CCCCn1c(SCC(=O)N2CCCC2)nc2c1c(=O)n(C)c(=O)n2C,-23.4
3,C=CCn1c(=O)c2ccccc2n2c(SCC(=O)c3ccccc3)nnc12,-20.3
4,Cc1ccccc1-n1nc2c(c1NC(=O)C(C)(C)C)CS(=O)(=O)C2,12
5,Cc1cccc(NC(=O)NCCCCc2ccccc2)c1,4.78
6,O=C(NCCS(=O)CCNC(=O)C(F)(F)F)C(F)(F)F,16
7,Cc1ccc(CSCCNC(=O)CCSc2ccccc2)cc1,-7.78
8,CC(=O)Nc1ccc(OCCCNC(=O)c2c(-c3ccccc3)noc2C)cc1,4.89
9,COCCNC(=O)C1CCN(S(=O)(=O)c2c(C)noc2/C=C/c2cccs2)CC1,-34.7
10,CCS(=O)(=O)C1=NSC2=NC(=O)/C(=C\c3ccc(OS(=O)(=O)c4ccccc4)cc3)C(=N)N21,22.5
11,COc1cccc(Nc2nc(-c3ccc4c(c3)OCCO4)cs2)c1,6.19
12,COc1ccccc1CC(=O)O/N=C(\N)c1cccc([N+](=O)[O-])c1,-8.86
13,CN(CC(=O)Nc1ccccc1Cl)C(=O)COC(=O)c1cnccn1,28.7
14,C/C(=N\N=C1\NC(=O)C(CC(=O)Nc2ccc(Cl)cc2)S1)c1ccco1 (stereo not drawn),13
15,CN(C)C(=S)Nc1ccc2ccccc2c1,11.2
16,COC(=O)c1ccc(NC(=O)C(=O)N2CCN(C(=S)Nc3ccc(C)cc3)CC2)cc1,-6.54
17,CN=C(c1ccc([N+](=O)[O-])cc1)N1CCCCC1,12.2
18,CC(C)(C)OC(=O)N1CCN(C(=O)c2[nH]cnc2C(=O)Nc2nccs2)CC1,-9.08
19,COc1ccc(OC)c(NC(=O)Cn2c(CCC(=O)O)ccc2-c2ccccc2)c1,-5.33
20,COc1cccc(CNC(=O)C2CCN(S(=O)(=O)c3ccc4c(c3)CC(C)N4C(C)=O)CC2)c1 (stereo not drawn),13.6
21,COc1ccc(S(=O)(=O)Nc2ccc(F)c(F)c2)cc1Cl,1.02

row,Structure (SMILES),"hERG current change (%, negative = inhibition) at 10uM [%]"
1,Cc1sc2ncnc(SCc3ccco3)c2c1C,7.4
2,C/C=C/C=N/NC(=O)CN(c1ccc(Br)cc1)S(=O)(=O)c1ccccc1,-12
3,CCn1ccnc1CN(C)Cc1nc(-c2ccccc2)no1,-6.72
4,Cc1ccc(C(=O)O[C@H](C(=O)O)[C@H](OC(=O)c2ccc(C)cc2)C(=O)O)cc1,6.07
5,COc1ccc(CC(NC(C)=O)C(=O)NC2CCN(c3c4c(nc5ncnn35)CCC4)CC2)cc1 (stereo not drawn),16
6,CCOc1ccc(S(=O)(=O)NCCC(=O)N(CC)CC(=O)Nc2c(F)cccc2F)cc1,-11.6
7,COc1ccc(N/N=C(/C#N)S(=O)(=O)C(C)(C)C)cc1,13.4
8,CCOc1ccc(N2CC(C(=O)N3CCCc4ccccc43)CC2=O)cc1 (stereo not drawn),-62.6
9,CC(C)CCN(C(=O)Nc1ccccc1)C(C)c1cccs1 (stereo not drawn),4.83
10,Cc1c(C)c2c(OCC(=O)N[C@@H](CC(C)C)C(=O)O)cc3c(c2oc1=O)CCC(C)(C)O3,13.9
11,Cc1cccc(OCc2nc(-c3cccnc3)no2)c1,-2.27
12,O=C1CC(c2ccc(S(=O)(=O)Nc3cc(C(F)(F)F)cc(C(F)(F)F)c3)cc2)CN1 (stereo not drawn),2.17
13,CCC(C)(C)NC(=O)C(c1cccn1C)N(C(=O)Cn1nnc2ccccc21)c1ccc(F)cc1 (stereo not drawn),1.09
14,CCOC(=O)CSc1nnc(Cc2cc(=O)[nH]c(=O)[nH]2)n1-c1cccc(OC)c1,-7.81
15,Cc1cccc(C)c1C(=NCCN(C)C)c1ccccc1.Cl,-41.3
16,C[C@H]1C=C(C(=O)NCc2nc3ccccc3[nH]2)O[C@@H](OCCCCO)C1,4.33
17,COc1cc(C(c2sc3nc(C)nn3c2O)N2CCN(c3ccccc3)CC2)cc(OC)c1OC (stereo not drawn),-2.02
18,CCCN1CCN(CCCNC(=O)C(CC)n2nc(C)n3c(cc4occc43)c2=O)CC1 (stereo not drawn),16.1
19,N/C(COc1ccc(C(=O)O)cc1)=N\O,-4.67
20,CC(C)Oc1ccc(C(CC(=O)O)NC(=O)C(Sc2ccccc2)c2ccccc2)cc1 (stereo not drawn),0.474
21,O=C(Nc1ccc(NC(=O)c2cccs2)cc1Cl)c1ccco1,12.1

# Reference: article PMC4336329 (PLoS ONE, 2015)
